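Interpolation was linear, between the two tested concentrations surrounding the appropriate level; five concentrations were tested over 48 hours in 96-well plates. GI50 = concentration required for 50% inhibition of growth. TGI denotes the concentration required for complete inhibition of growth.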 Square brackets hold non-standard residues; d marks the D form. Peptide text beside a SMILES is read from it. ΔPro = O=C(O)[CH]1C=CCN1

The test system of this test is NCI-H322M lung. The test is described as follows: NCI-60 cell line screen, 48 h.
`Cc1cc(=O)oc2c1cc1ccc3cccc4ccc2c1c34`: the TGI is > 100 µM.
As for `Cc1ccc2c(c1)-c1c3c(nn1C)-c1ccccc1SC3O2` (centres undefined), the TGI is > 100 µM.
The compound `CC(C)c1oc(=O)cc2c1C(O)C1OC(=O)C3(C)C(O)C4OC4C2(C)C13` (centres undefined) returned a TGI of 27.5 µM.
As for `O=C(NC1CC1)c1c(O)[nH]c(=S)[nH]c1=O`, the TGI was > 100 µM.
`COc1cccc2c1C(=O)c1c(O)c3c(c(O)c1C2=O)C[C@@](O)(/C(CO)=N/NC(=O)CCCCCN1C(=O)C=CC1=O)C[C@@H]3O[C@H]1C[C@H](N)[C@H](O)[C@H](C)O1`: the GI50 was 2.79 µM and the TGI was > 82.2 µM.
In the case of `CC1(C)C(N2CCOCC2)CS1(=O)=O` (centres undefined), the TGI was > 10 µM.
As to `NCCCNc1nc2ccccc2c2c(=O)c3cc(F)ccc3sc12`, the GI50 was 1.58 µM and the TGI turned out to be 2.97 µM.
As for `CCC12C=CCN(CCc3c([nH]c4ccccc34)/C=C\1)C2` (centres undefined), the TGI is > 100 µM.
Still for that read-out and setting: next, `CCOC(=O)c1cc(=O)n(C)c(=O)n1C`: > 100 µM.
In the case of `COC(=O)c1c(O)ccc(O)c1C(C(C)=O)C(C)=O`, the TGI is > 100 µM.
The same measure, in the same setting: the same measure for `O=C(O)c1ccc2c(c1)C(=O)N(c1ccc(S(=O)(=O)c3ccc(N4C(=O)c5ccc(C(=O)O)cc5C4=O)cc3)cc1)C2=O`: > 100 µM; for `Cn1[nH]cc2ccc3nc4ccccc4c(=O)c3c21`: > 100 µM.
In the case of `Cc1cccc(C)c1NC(=O)CCC(=O)NC(N)=NC#N`, the TGI was > 100 µM.
Still for that read-out and setting: next, `CC(=O)NS(=O)(=O)c1ccc(NCc2cccc3c(=O)c4ccc(Cl)cc4oc23)cc1`: > 100 µM.
`CC[C@@H](C)/C=C(C)/C=C/C(=O)c1c(O)c(-c2ccc(OC(=O)[C@@]34CC[C@@](C)(C(=O)O3)C4(C)C)cc2)cn(O)c1=O`: the GI50 is 1.19 µM and the TGI was 15.3 µM.
With `CCN(CC)CCNC(=O)c1cccc2c1-c1ccccc1C2=O`, the GI50 is > 100 µM and the TGI is > 100 µM.
With `Cc1nc2sc(C(=O)Nc3cccc(Br)c3C)c(N)c2cc1C(O)c1ccccc1` (centres undefined), the GI50 is 0.067 µM and the TGI worked out at 38.4 µM.
Take `O/N=C(\CC(O)(C(F)(F)F)C(F)(F)F)c1cccs1`: the TGI was > 10 µM.
On to `CNc1cc([N+](=O)[O-])ccc1C(=O)N1CCC[C@H]1CO`, for which the TGI was > 100 µM.
Turning to `COc1ccc2c(c1)C(=Nc1ccc(F)c(Cl)c1)c1c-2c(Nc2ccc(F)c(Cl)c2)nc2ccccc12`, the GI50 is > 100 µM and the TGI is > 100 µM.
As for `C/C(O)=C(\C=N\C(=S)N=Nc1c(O)[nH]c2ccccc12)C(=O)Nc1ccccc1C`, the TGI is > 100 µM.
Consider `COC(=O)C1C(C(=O)O)C2(c3ccccc3)C(=O)C1(c1ccccc1)C(c1ccccc1)=C2c1ccccc1` (centres undefined), for which the GI50 was 28.3 µM and the TGI was 63.3 µM.
`Cc1c(C(=O)c2ccccc2)[n+](=O)c2cc(Cl)c(Cl)cc2n1[O-]` registered a TGI of 18.4 µM.
On to `Cc1ccc(/C=N/NC(=O)c2ccccc2Oc2ccccc2)o1`, for which the GI50 is > 96.5 µM and the TGI was > 100 µM.
For `Cc1ccccc1NC(=O)/C(=N\NC(N)=S)C(C#N)c1ccccc1` (centres undefined), the TGI was > 100 µM.
On the same count and under the same terms, next, `O=C(O)CCC(NC(=O)c1ccc(Nc2cnc3cc(C(F)(F)F)ccc3n2)cc1)C(=O)O` (centres undefined): > 100 µM.
As to `CC1=NN(c2ccc(S(=O)(=O)O)cc2)C2(C1)C(Cl)C(=O)N2c1nc2ccccc2s1` (centres undefined), the TGI is > 100 µM.
`C=C(C)C1CC[C@@](C)(O)[C@H](C#N)C1` (some centres undefined): the TGI was > 100 µM.
For `CC1=CC(=O)N(c2cccc3c(N4C(=O)C=C(C)C4=O)cccc23)C1=O`, the GI50 is > 61.2 µM and the TGI was > 100 µM.
With `CC(=O)[O-].CC(=O)[O-].O=C(N/N=C/c1cc(Cl)cc(Cl)c1[OH2+])c1ccncc1.[Mn+2]`, the TGI came out at 20.9 µM.
Take `O=S1(=O)c2ccccc2N(c2ccccc2)c2nnnn21`: the TGI is > 100 µM.
As to `COc1ccc(Cn2cc(COc3cc(/C=C/C(=O)c4cc(OC)c(OC)c(OC)c4)ccc3OC)nn2)cc1`, the GI50 is 3.13 µM and the TGI amounted to 32.4 µM.
Take `COc1ccc(OC)c(Nc2nc3nonc3nc2Nc2cccc(Br)c2)c1`: the GI50 was 2.32 µM and the TGI turned out to be 81.5 µM.
As to `O=C1C=C(c2ccccc2)OC1C1Sc2ccccc2NC1=O` (centres undefined), the TGI is > 100 µM.
`O=C1/C(=C\c2ccc(F)cc2)CN(C(=O)c2ccccc2F)C/C1=C\c1ccc(F)cc1`: the GI50 is 3.91 µM and the TGI is 15.8 µM.
As to `Cc1ccc2[nH]c3c(c(=O)n(C)c(=O)n3C)c2c1`, the TGI is > 100 µM.
For `NC(=O)c1c(NC(=O)c2cccs2)sc2c1CCC(=O)C2`, the GI50 is 7.89 µM and the TGI was > 100 µM.
With `Brc1ccccc2cc(-c3ccccc3)nc1-2`, the TGI came out at 53.3 µM.
On to `Cn1ncc(C#N)c1-c1ccc2c(c1)CN([C@H](CN)Cc1cccc(F)c1)C2=O`, for which the GI50 is 16.2 µM and the TGI is > 100 µM.
For `N#C/C(=C\c1cc(O)c(O)c(O)c1)C(N)=O`, the TGI was > 100 µM.
Consider `COC(=O)[C@H](Cc1cn(C)cn1)NC(=O)[C@H](CC(=O)OCc1ccccc1)NC(=O)Nc1cc(C(F)(F)F)cc(C(F)(F)F)c1`, for which the GI50 is 15.4 µM and the TGI was 29.8 µM.
For the compound `COC(=O)[C@@H]1C[C@@H](O)CN1C(=O)c1ccc([N+](=O)[O-])cc1[N+](=O)[O-]`, the TGI is > 100 µM.
In the case of `COc1cc(S(=O)(=O)Nc2ccc(-c3csc(N4C(=O)C(C)SC4c4cccs4)n3)cc2)ccc1Cl` (centres undefined), the TGI is > 100 µM.
The same measure, in the same setting: next, `O=C(/C=C/c1ccc(Cl)c(Cl)c1)c1ccccc1Cl`: 36 µM; `CC(Br)CN1CCOCC1` (centres undefined): > 100 µM.
The same measure, in the same setting: the same measure for `C=C1C(=O)O[C@H](c2ccoc2)C[C@@H]1[C@@]1(C)CCCC2(C)C(=O)OCC21` (some centres undefined): > 100 µM.
On to `C=C1c2nc3ccccc3n2C=C(c2cccc(Cl)c2)N1Cc1ccc(OC)cc1`, for which the GI50 is 6.58 µM and the TGI is > 100 µM.
For `Nc1cccc2c1-c1c(cccc1[N+](=O)[O-])C2=O`, the TGI was > 100 µM.
On to `CCc1nc(C)cn1C(=O)OCc1nc2nc(Cl)nc(N3CCOCC3)c2[nH]1`, for which the GI50 is 1.65 µM and the TGI stood at 3.43 µM.
The corresponding values for `O=C(/C=C/c1ccccc1)c1cccc2ccccc12` are 2.32 µM and 6.14 µM.
As for `O=C(Nc1ccncc1)C(=O)c1cn(S(=O)(=O)c2cccc(Cl)c2)c2ccccc12`, the GI50 was > 100 µM and the TGI is > 100 µM.
Consider `C=C(Cl)/C(=C\Cl)CCC(Cl)C(C)C` (centres undefined) (tested in a mixture with another compound), for which the TGI is 30 µM.
With `CC(=Nc1ccc(N(C)C)cc1)c1ccccc1`, the TGI was > 100 µM.
Still for that read-out and setting: next, `CCc1n[nH]c(=O)n1CC`: > 100 µM; `O=C(O)C1C=CCN1C(=O)C1C=CCN1C(=O)C1C=CCN1` (centres undefined) (H-[ΔPro]-[ΔPro]-[ΔPro]-OH; configuration not given here): > 100 µM.
For the compound `CCN1CCN(c2nc(C)cc(NCc3cc(Nc4ccnc5cc(Cl)ccc45)ccc3F)n2)CC1`, the GI50 was 1.7 µM and the TGI was 6.81 µM.
In the case of `COc1cc(OCc2ccccc2)c2c(CCC(=O)O)cc(=O)oc2c1` (tested in a mixture with another compound), the TGI was > 100 µM.
Take `O=S1SC(=S)C2C=CC=NC21` (centres undefined): the TGI is > 100 µM.
Same read-out and setting: next, `CN(C)NC1=C([N+](=O)[O-])C=NN(c2ccccc2)C1`: 13.2 µM.
